The whole screen tested about 48,000 compounds, of which about 450 (0.94%) were called active. About 19% were inconclusive and are not listed. Calls come from the whole dose curve; as a rule, active = well fitted inhibition curve with a large enough effect; inconclusive = small, poorly fitted or top-dose-only effect; inactive = no such curve, though single readings can be large or run the other way. The list shows a part of the results.
Experiment: Primary qHTS for Identification of Small Molecule Inhibitors of Huntingtin Promoter Activity; note: nearly all actives have a fitted effect of over 50% in size
Settings: HEK293 HTT promoter firefly luciferase reporter (activity 0% = vehicle and -100% = no light), 24 h; series mostly up to 57.5 µM; activity change, negative = inhibition: at the top concentration
In short: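 HEK293 luciferase promoter-reporter cells (2,500/well) plated 24 h, then compounds added at up to 57.5 uM final for 24 h at 37 °C. Firefly luminescence by Dual-Glo, normalized to vehicle (0%) and zero RLU (-100%).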
Potency is the fitted concentration of half-maximal effect.

Activity change, negative = inhibition, inactive:
COc1cc(NS(=O)(=O)c2ccc(NC(=O)c3cccc(F)c3)cc2)nc(OC)n1 -6.42%
CCC1CN(S(=O)(=O)c2cc(-c3cc(C)no3)ccc2C)c2cc(Cl)ccc2O1 (stereo not drawn) -11.3%
CCCc1nn2c(=O)cc(COC(=O)c3cccc(NC(=O)c4cccs4)c3)nc2s1 -17.3%
CCc1cccc(C)c1NC(=O)CCS(=O)(=O)c1cc(Br)cc2c1N(C(=O)C1CC1)CC2 -20.3%
Cc1c(C(=O)NCc2ccc(Cl)cc2)sc2nc3n(c(=O)c12)CCCCC3 -19.1%
O=C(Nc1ccc(C(=O)OCc2cc(=O)n3c4c(sc3n2)CCCC4)cc1)c1ccc(F)cc1 -8.08%
CCc1nn2c(-c3ccccc3OC)ccnc2c1-c1ccccc1 -21.7%
O=C(NCCc1ccccc1)C(=O)NCC(c1ccco1)S(=O)(=O)c1cccs1 (stereo not drawn) -23.5%
COc1ccc(-c2nc(CSc3nncn4c3cc3oc(C)cc34)c(C)o2)cc1 0.484%
Cc1ccc(-n2nnc(-c3nc(-c4cccs4)no3)c2N)cc1C 42.1%
COc1cc(NC(=O)CN2C(=O)c3ccccc3Sc3ccc(C(=O)N4CCCC4)cc32)cc(OC)c1 -4.86%
CCOC(=O)c1[nH]c2ccccc2c1NC(=O)c1ccccc1F -12.2%
CCN1CCN(CCCNC(=O)CS(=O)(=O)Cc2nc(-c3cccc(OC)c3)oc2C)CC1 -2.89%
Cc1oc2ncnc(N3CCCCC3)c2c1C(=O)NCC1CCN(Cc2cccc(F)c2)CC1 0.749%
COC(=O)c1c(Cl)c(Cl)c(C(=O)OC)c(Cl)c1Cl 9.32% [at 116 µM]
COC(=O)c1ccc(OCC2c3cc(OC)c(OC)cc3CCN2C(=O)Cc2ccccc2)cc1 (stereo not drawn) -27.8%
Cn1cnnc1SCC(=O)Nc1ccc(C#N)cc1 -11%
CN(CC(=O)NCc1ccccc1)S(=O)(=O)c1ccc2[nH]c3c(c2c1)CCCC3 -11.8%
CCc1ccccc1NC(=O)C1(C)Cc2ccccc2C(=O)O1 (stereo not drawn) -13.2%
COc1ccccc1N1CCN(c2ncnc3c2cnn3-c2cccc(Cl)c2)CC1 -6.29%
CC(C)(C)C1CCc2c(sc(NC(=O)c3ccc(Cl)cc3)c2C(=O)NCc2ccco2)C1 (stereo not drawn) -12.4%
COc1ccc(-c2cn3nc(N4CCCC(C(=O)Nc5cc(C)cc(C)c5)C4)sc3n2)cc1 (stereo not drawn) -5.27%
CC(C)[C@H](C(=O)Nc1ccc(C(=O)NO)cc1)c1ccccc1 162%
C#C[C@]1(OC(C)=O)CC[C@H]2[C@@H]3CCC4=C[C@@H](OC(C)=O)CC[C@@H]4[C@H]3CC[C@@]21C -24.8%
CCN(CC)S(=O)(=O)c1ccc(C(=O)N2CC(=O)Nc3ccc(F)cc3C2c2ccccc2)cc1 (stereo not drawn) -15.6%
O=C(C1CCN(S(=O)(=O)c2ccc(Br)s2)CC1)N1CCN(c2ccccc2)CC1 -12.7%
CC(C)(C)OC(=O)N1CCC(c2c(C(=O)NCCc3ccccc3)cnn2-c2ccc(F)cc2)CC1 -23.5%
COc1ccc(CCN2C(=O)NC(NS(=O)(=O)c3ccc(NC(C)=O)cc3)(C(F)(F)F)C2=O)cc1OC (stereo not drawn) -18.9% [at 11.5 µM]
COc1cc(NC(=O)c2c(C)oc3c2C2=NCCN2C=N3)cc(OC)c1OC -18.1%
CCc1ccc(-c2nn(CC(=O)NCc3ccccc3)c3c2cnc2ccc(F)cc23)cc1 44.5%
CN(C)c1ccc(/C=C(\C#N)c2nc(-c3ccc(Cl)c(Cl)c3)cs2)cc1 -3.97%
COc1cc(NC(=O)COCc2cc(-c3ccc4c(c3)OCO4)on2)cc(OC)c1 -10.4%
Cc1ccc(-n2c(=O)c3c(cnn3C)n(Cc3ccccc3F)c2=O)cc1 -26.9%
Cn1c2ccccc2c2cnn(CC(=O)Nc3ccccc3C(F)(F)F)c(=O)c21 8.35%
Cc1ccccc1-c1noc(-c2ccc(N3CCOCC3)c([N+](=O)[O-])c2)n1 14.5%
CCN(CC)C(=O)c1sc2c(c1C)c(=O)n(-c1ccc(OC)cc1OC)c(=O)n2CC(=O)c1ccc(Cl)cc1 -17.5%
CCn1cc(S(=O)(=O)c2ccccc2)c(=O)c2cc(F)c(N3CCN(c4ccccc4)CC3)cc21 -17%
COc1cc(NC(=O)c2oc3c(c2C)-c2nn(Cc4cccc(Cl)c4)cc2CC3)cc(OC)c1 6.45%
Cc1ccc(Cn2c(CN3CCC(C(=O)NCCc4ccccc4)CC3)cc3ccccc32)cc1 -20.6%
N#Cc1ccc(C(=O)Nc2ccc3c(c2)N(C2CCCC2)C(=O)c2ccccc2S3)cc1 -28.2%
CCc1nn(CC(=O)Nc2ccc(N(CC)CC)cc2C)c(=O)c2cc3sccc3n12 8.76%
CC(C)Sc1ncc(Cl)c(C(=O)N(Cc2ccc(N(C)C)cc2)C2CCS(=O)(=O)C2)n1 (stereo not drawn) 0.738%
Cc1ccc(-c2noc(-c3ccccc3NC(=O)C3CC(=O)N(c4ccccc4C)C3)n2)cc1 (stereo not drawn) 29.7%
CC(C)Cn1c(=O)c2ccccc2n2c(CCC(=O)NC(C)c3ccccc3)nnc12 (stereo not drawn) 7.84%
CCOc1ccc(C2C(C(=O)Nc3ccccc3)=C(C)Nc3nc(SCc4cc(C)ccc4C)nn32)cc1 (stereo not drawn) -6.82%
COc1cc(-c2nc(Cn3nnc(C(=O)Nc4ccc(C)cc4C)c3C)c(C)o2)cc(OC)c1OC 1.67%
Cc1oc(-c2ccccc2F)nc1CS(=O)(=O)CC(=O)NCCc1ccc(Cl)cc1 -31%
COc1ccc(N2CCN(c3oc(-c4ccc(COc5cccc(C)c5)o4)nc3C#N)CC2)cc1 -22.4%
Cc1ccc(NC(=O)CN(C)S(=O)(=O)c2ccc3[nH]c4c(c3c2)CCCC4)c(Cl)c1 -1.75%
Cc1cccc(NC(=O)c2sc3nc(N4CCOCC4)c4c(c3c2N)CC(C)(C)OC4)c1 37%
COc1ccccc1C(=O)Nc1ccc(OCc2cc(=O)n3ccsc3n2)cc1 6.2%
O=C(CSc1nc2c([nH]c3ccccc32)c(=O)n1-c1ccccc1)Nc1ccc2c(c1)OCCO2 -32.7%
Cc1ccc(C)c2sc(N3CCN(C(=O)C(C)(C)C)CC3)nc12 0%
CC1=C(C(=O)Nc2ccc(C)cc2Cl)C2(CCCCCC2)OC1=O -5.79%
CCC(=O)c1cc2c(cc1NC(=O)c1ccccc1F)OCCO2 12.4%
COc1ccc([C@@H]2CNC(=O)C2)cc1OC1CCCC1 268%
CCOc1ccc(CCNC(=O)c2ccc(-n3c(C)cc4c3CCC(C)C4)cc2)cc1OCC (stereo not drawn) -21.2%

Potency, active:
CCN(Cc1ccccc1)S(=O)(=O)c1cc(C(=O)Nc2cc(Cl)cc(Cl)c2)ccc1F 25.1 µM

From PubChem BioAssay AID1508623 (National Center for Advancing Translational Sciences (NCATS), 2021)
